The list shows a part of the results.

The text below walks through data of paper PMC12820563, “FoxP3 forms a head-to-head dimer in vivo and stabilizes its multimerization on adjacent microsatellites”.

The target of the assay is T1, MBP-FoxP1dN (Mus musculus, UniProt P58462 326-579).
T1 sequence: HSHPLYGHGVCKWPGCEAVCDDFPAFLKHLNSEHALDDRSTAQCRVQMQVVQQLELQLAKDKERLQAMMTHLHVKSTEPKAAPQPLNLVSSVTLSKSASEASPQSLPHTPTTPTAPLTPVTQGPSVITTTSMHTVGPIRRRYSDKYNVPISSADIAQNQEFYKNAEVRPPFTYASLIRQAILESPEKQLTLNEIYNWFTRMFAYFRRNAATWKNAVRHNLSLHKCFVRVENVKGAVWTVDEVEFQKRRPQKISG
In words: PD-seq (MBP pull-down with sequencing); 20 mM Tris-HCl pH 7.5, 100 mM NaCl, 1.5 mM MgCl2, 0.4 uM protein, 0.1 uM dsDNA library, 30 min, room temperature, amylose pull-down; high values mean tight binding. The conditions noted are these: protein: recombinant; tags: His6-MBP; chain copies: 2; dsDNA, one strand shown. Summed up: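 Amylose resin was used to capture complexes formed during 30 min at room temperature in Tris pH 7.5 buffer with NaCl and MgCl2 between 0.4 µM His6-MBP-tagged mouse FoxP3 or FoxP1 fragment lacking the N-terminus, expressed in E. coli, and 0.1 µM Klenow-filled double-stranded degenerate DNA library. After three washes, the DNA was released with proteinase K, barcoded by PCR and sequenced on Illumina. Binding is pooled-replicate reads-per-million enrichment, pull-down over input.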
Regarding “GATGATTGTTCTCCCAGCTGATGAATTCACGCGTTCGAGTAAACAAATTTTCCTAATCTTTCTGTTCAAGCGCCATCTAC”, the binding signal was 1.02 RPM ratio (pull-down/input). “GATGATTGTTCTCCCAGCTGATGAATTCATTAGATCGAGTAAACAAATTTTCCTAATCTTTCTGTTCAAGCGCCATCTAC”: the binding signal was 0.904 RPM ratio (pull-down/input). Then “GATGATTGTTCTCCCAGCTGATGAATTAGGGAATTCGAGTAAACAAATTTTCCTAATCTTTCTGTTCAAGCGCCATCTAC”, with 0.939 RPM ratio (pull-down/input).

“GATGATTGTTCTCCCAGCTGATGAATTGGATCGGTCGAGTAAACAAATTTTCCTAATCTTTCTGTTCAAGCGCCATCTAC”: the binding signal is 0.781 RPM ratio (pull-down/input). “GATGATTGTTCTCCCAGCTGATGAATTCGCTTCTTCGAGTAAACAAATTTTCCTAATCTTTCTGTTCAAGCGCCATCTAC”: the binding signal is 0.934 RPM ratio (pull-down/input). Then “GATGATTGTTCTCCCAGCTGATGAATTTGAACCGTCGAGTAAACAAATTTTCCTAATCTTTCTGTTCAAGCGCCATCTAC”, with 0.813 RPM ratio (pull-down/input). Consider “GATGATTGTTCTCCCAGCTGATGAATTATCTTGGTCGAGTAAACAAATTTTCCTAATCTTTCTGTTCAAGCGCCATCTAC”, for which the binding signal is 0.937 RPM ratio (pull-down/input).

For the sequence “GATGATTGTTCTCCCAGCTGATGAATTCCATATCTCGAGTAAACAAATTTTCCTAATCTTTCTGTTCAAGCGCCATCTAC”, the binding signal was 0.894 RPM ratio (pull-down/input). For the sequence “GATGATTGTTCTCCCAGCTGATGAATTTATTCGTTCGAGTAAACAAATTTTCCTAATCTTTCTGTTCAAGCGCCATCTAC”, the binding signal was 1.13 RPM ratio (pull-down/input). As for “GATGATTGTTCTCCCAGCTGATGAATTCAGTCTTTCGAGTAAACAAATTTTCCTAATCTTTCTGTTCAAGCGCCATCTAC”, the binding signal is 0.95 RPM ratio (pull-down/input). As for “GATGATTGTTCTCCCAGCTGATGAATTCGTTAAATCGAGTAAACAAATTTTCCTAATCTTTCTGTTCAAGCGCCATCTAC”, the figure is 0.968 RPM ratio (pull-down/input); as for “GATGATTGTTCTCCCAGCTGATGAATTGAGCTGCTCGAGTAAACAAATTTTCCTAATCTTTCTGTTCAAGCGCCATCTAC”, 0.787 RPM ratio (pull-down/input).

For “GATGATTGTTCTCCCAGCTGATGAATTTTCAAGCTCGAGTAAACAAATTTTCCTAATCTTTCTGTTCAAGCGCCATCTAC”, the binding signal was 0.826 RPM ratio (pull-down/input). “GATGATTGTTCTCCCAGCTGATGAATTCATGCCGTCGAGTAAACAAATTTTCCTAATCTTTCTGTTCAAGCGCCATCTAC”: the binding signal was 0.877 RPM ratio (pull-down/input). Consider “GATGATTGTTCTCCCAGCTGATGAATTCCTGCCCTCGAGTAAACAAATTTTCCTAATCTTTCTGTTCAAGCGCCATCTAC”, for which the binding signal was 0.786 RPM ratio (pull-down/input). “GATGATTGTTCTCCCAGCTGATGAATTGGCTGTATCGAGTAAACAAATTTTCCTAATCTTTCTGTTCAAGCGCCATCTAC”: the binding signal is 1.06 RPM ratio (pull-down/input). As for “GATGATTGTTCTCCCAGCTGATGAATTGTGTATTTCGAGTAAACAAATTTTCCTAATCTTTCTGTTCAAGCGCCATCTAC”, the figure is 1.75 RPM ratio (pull-down/input); as for “GATGATTGTTCTCCCAGCTGATGAATTCGGGGCGTCGAGTAAACAAATTTTCCTAATCTTTCTGTTCAAGCGCCATCTAC”, 0.767 RPM ratio (pull-down/input).

Take “GATGATTGTTCTCCCAGCTGATGAATTCATGGACTCGAGTAAACAAATTTTCCTAATCTTTCTGTTCAAGCGCCATCTAC”: the binding signal is 0.886 RPM ratio (pull-down/input). In the case of “GATGATTGTTCTCCCAGCTGATGAATTAGTGTGGTCGAGTAAACAAATTTTCCTAATCTTTCTGTTCAAGCGCCATCTAC”, the binding signal is 1.01 RPM ratio (pull-down/input). As for “GATGATTGTTCTCCCAGCTGATGAATTCTAACCATCGAGTAAACAAATTTTCCTAATCTTTCTGTTCAAGCGCCATCTAC”, the figure is 0.91 RPM ratio (pull-down/input); as for “GATGATTGTTCTCCCAGCTGATGAATTCCCACGCTCGAGTAAACAAATTTTCCTAATCTTTCTGTTCAAGCGCCATCTAC”, 0.836 RPM ratio (pull-down/input).

Take “GATGATTGTTCTCCCAGCTGATGAATTAGCTCATTCGAGTAAACAAATTTTCCTAATCTTTCTGTTCAAGCGCCATCTAC”: the binding signal is 0.91 RPM ratio (pull-down/input). Then “GATGATTGTTCTCCCAGCTGATGAATTCGAAGAATCGAGTAAACAAATTTTCCTAATCTTTCTGTTCAAGCGCCATCTAC”, with 0.913 RPM ratio (pull-down/input). Take “GATGATTGTTCTCCCAGCTGATGAATTCAGGTCCTCGAGTAAACAAATTTTCCTAATCTTTCTGTTCAAGCGCCATCTAC”: the binding signal was 0.76 RPM ratio (pull-down/input). As for “GATGATTGTTCTCCCAGCTGATGAATTTTATGGTTCGAGTAAACAAATTTTCCTAATCTTTCTGTTCAAGCGCCATCTAC”, the figure is 1.03 RPM ratio (pull-down/input); as for “GATGATTGTTCTCCCAGCTGATGAATTACCCGGATCGAGTAAACAAATTTTCCTAATCTTTCTGTTCAAGCGCCATCTAC”, 0.883 RPM ratio (pull-down/input). Then “GATGATTGTTCTCCCAGCTGATGAATTATATTAGTCGAGTAAACAAATTTTCCTAATCTTTCTGTTCAAGCGCCATCTAC”, with 1.2 RPM ratio (pull-down/input); and “GATGATTGTTCTCCCAGCTGATGAATTCGATATATCGAGTAAACAAATTTTCCTAATCTTTCTGTTCAAGCGCCATCTAC”, with 1.01 RPM ratio (pull-down/input).

Turning to “GATGATTGTTCTCCCAGCTGATGAATTTCGTATCTCGAGTAAACAAATTTTCCTAATCTTTCTGTTCAAGCGCCATCTAC”, the binding signal is 0.911 RPM ratio (pull-down/input). Regarding “GATGATTGTTCTCCCAGCTGATGAATTGAACCTTTCGAGTAAACAAATTTTCCTAATCTTTCTGTTCAAGCGCCATCTAC”, the binding signal is 0.867 RPM ratio (pull-down/input).
